# From PubChem BioAssay AID1347073 (National Center for Advancing Translational Sciences (NCATS), 2019)
# The whole screen tested about 45,000 compounds, of which about 200 (0.44%) were called active. Another 7% or so got no clear call; they are omitted. Calls follow the shape of the dose curve; as a rule, active = well fitted activation curve with a large enough effect; inconclusive = small, poorly fitted or top-dose-only effect; inactive = no such curve, though single readings can be large or run the other way. The list shows a part of the results.
# Experiment: qHTS of TDP-43 Inhibitors: NCGC Sytravon Library Screen; also: 0% is about no effect; nearly all actives have a fitted effect of over 55% in size
# Details: yeast TDP-43 toxicity rescue, BacTiter-Glo growth, 24 h; series mostly up to 46.1 µM; growth rescue (activation): at the top concentration
# How it was run: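 TDP-43-expressing yeast, pregrown in raffinose, seeded at OD600 0.02 in galactose medium with compound for 24 hr at 30 deg C. Growth read by BacTiter-Glo luminescence, so rescue of toxicity appears as activation.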
row,SMILES,growth rescue (activation)
1,O=C(CCN1CCCCO1)N1CCCC(Nc2ccc(F)cc2)C1 (centres undefined),inactive: 6.23%
2,COc1ccc2c(c1)Cc1sc(NC(=O)c3cccc(F)c3)nc1-2,inactive: 15.5%
3,CCOC(=O)c1ccc(NC(=O)C2CC(=O)N(c3ccc(C(C)C)cc3)C2)cc1 (centres undefined),inactive: 9.95%
4,CC(=O)ONC(=Nc1ccccc1)c1nonc1N,inactive: -1.25%
5,Cc1ccc(S(=O)(=O)NCCCOC(=O)Nc2ccncc2)cc1,inactive: 0.817%
6,Cc1cccc(-n2c(N)c(C(=O)NCCN3CCOCC3)c3nc4ccccc4nc32)c1,inactive: 8.47%
7,COc1ccccc1CNC(=O)c1ccc(-c2ccccc2)cc1,inactive: 1.19%
8,Cc1cccc(NC(=O)CCNS(=O)(=O)c2cccc3nonc23)c1,inactive: -11.1%
9,O=C(C[n+]1cc(Br)cc(Br)c1)c1ccccc1,inactive: 2.94%
10,COc1ccc(OC(C)c2ccc(C#N)c(=O)[nH]2)cc1 (centres undefined),inactive: 6.47%
11,CN(C)C(=O)c1cccc(-c2cccc3nccn23)c1,inactive: -9.65%
12,CCn1c(C(C)C)n[nH]c1=S,inactive: 1.48%
13,CCc1nnc(NC(=O)c2cc3c(s2)CCCCC3)s1,inactive: 13.2%
14,COc1cccc(C(=O)NCCNC(=O)c2cnccn2)c1,inactive: -16.5%
15,COC(=O)[C@H](C)NC(=O)Nc1cccc(Br)c1,inactive: -6.08%
16,CC(NC(=O)c1ccccc1Cl)C(=O)NCc1cccs1 (centres undefined),inactive: 29.9%
17,Cc1cccc(C)c1OCc1cc(C(=O)N(C)Cc2cc(C3CC3)n[nH]2)no1,inactive: 20.8%
18,CC(=O)c1ccc(Nc2nc(C(N)C3CCCCC3)cs2)cc1 (centres undefined),inactive: 6.19%
19,COc1ccccc1NC(=O)C(=O)N1CCCC1,inactive: 23%
20,COc1ccc(NC(=O)N2CCCC2C(=O)Nc2ccc(C)cc2C)cc1 (centres undefined),inactive: 9.67%
21,Cn1c(/C=C/c2ccc([N+](=O)[O-])o2)nc2ccccc2c1=O,inactive: -92.8%
22,O=C(CSCc1ccc(Cl)cc1)Nc1ccccc1O,inactive: 25.4%

row,SMILES,growth rescue (activation)
1,CC(C(=O)NN=C(c1ccccc1)c1ccccc1)N1CCCC1 (centres undefined),inactive: 5.55%
2,CCC(CC)C(=O)N(C)c1c(C)nc2c(OCC=C(C)C)cccn12,inactive: 12.6%
3,Cn1c2ccccc2c(=O)c2c(=O)n(C3CCCCCC3)c(C3CCCCC3)nc21,inactive: -3.95%
4,OCc1ccccc1-c1cnc2cccnn12,inactive: -1.57%
5,CCOc1ccc(CCNC(=O)c2[nH]c(C)c(C(C)=O)c2C)cc1OCC,inactive: 12.2%
6,CC(C)CNC(=O)C1(C)CCCCCN1Cc1ccccc1-c1ccccc1 (centres undefined),inactive: -7.37%
7,CCOC(=O)Cc1csc(NC(=O)Cc2ccc(Cl)cc2)n1,inactive: 27.5%
8,COc1ccc(-c2cc(C(=O)NCC3CCCCC3)[nH]n2)c(C)c1,inactive: -3.53%
9,CC(C)c1ccc(CC(=O)N2CCC2(C)C(=O)NS(=O)(=O)c2cccc(OC(F)F)c2)cc1 (centres undefined),inactive: 12.7%
10,CC1CN(S(=O)(=O)c2cccc(C(F)(F)F)c2)C(C)N1C(=O)N1CCOCC1 (centres undefined),inactive: 7.42%
11,COc1ccc(C(=O)N/C(=C/c2cccs2)C(=O)NC(C)(C)C)cc1OC,inactive: 6.98%
12,CCOC(=O)C1CCN(CCC(=O)Nc2ccc(F)cc2)CC1,inactive: 5.31%
13,COc1cc(C(=O)OCC(=O)Nc2ccc(S(=O)(=O)N3CCCC3)cc2)cc(OC)c1OC,inactive: 0.348%
14,CCC(=O)NC(=S)Nc1ccc(NC(=O)COc2ccc(Cl)c(C)c2)cc1,inactive: 24.4%
15,O=C(c1ccc(Cl)cc1)N(Cc1ccccc1F)N1C(=O)CCCC1=O,inactive: -8.34%
16,Cc1ccc(-c2nnc3c4ccccc4c(C)nn23)cc1NC(=O)c1ccccc1Cl,inactive: 6%
17,COc1ccc(N2CC(C(=O)OCC(=O)Nc3ccccc3C)CC2=O)cc1 (centres undefined),inactive: -0.144%
18,O=[N+]([O-])c1ccc(/C=C/c2ccc3ccccc3n2)cc1,inactive: 13%
19,Cc1ccc(OCC(=O)N2N=C(c3cccnc3)CC2(O)C(F)(F)F)cc1C (centres undefined),inactive: -20.1%
20,CCOc1ccc(NC(=O)CSc2nnnn2CC(=O)O)cc1,inactive: -7.17%
21,COc1ccc(NC(=O)CN2CCC(Cc3ccccc3)CC2)cc1S(=O)(=O)N1CCOCC1,inactive: -21.5%
22,COC(=O)CNc1nc(Cl)nc(Nc2ccc(C)cc2)n1,inactive: -14.1%

row,SMILES,growth rescue (activation)
1,O=C(CCC(=O)NCCO)NCCO,inactive: 7.48%
2,O=C(NCCOc1ccccc1F)c1cc(F)c(F)cc1Cl,inactive: 13.8%
3,COc1cc(Cn2c3ccc(NC(=O)CCc4ccccc4)cc3c(=O)n2C)ccc1F,inactive: -8.38%
4,Cc1cc(C)c(O)c(-c2cc(C(=O)Nc3cccnc3)[nH]n2)c1,inactive: -11%
5,COc1cc(C2SCC(=O)N2CCN2CCCCC2)ccc1O (centres undefined),inactive: -7.85%
6,CC1(C(=O)NS(=O)(=O)c2ccc(C#N)cc2)CCN1C(=O)Cc1ccc(-c2ccccc2)cc1 (centres undefined),inactive: 13.9%
7,CCCCSc1oc(-c2ccco2)nc1S(=O)(=O)c1ccccc1,inactive: 23.3%
8,CCOC(=O)N1CCN(C(=O)CN(C)S(=O)(=O)c2ccc3c(c2)c(=O)n(C)c(=O)n3C)CC1,inactive: 7.77%
9,O=C(O)CC(C(=O)OCCOc1ccccc1)N1CCOCC1 (centres undefined),inactive: 29%
10,Cc1cc(N2C(=O)C(O)=C(C(=O)c3ccc(C)o3)C2c2cccc(Oc3ccccc3)c2)no1 (centres undefined),inactive: -3%
11,O=C(C1=NN[C@@H]2C(=O)N(c3cccc(C(F)(F)F)c3)C(=O)[C@H]12)C(c1ccccc1)c1ccccc1,inactive: 15.5%
12,Cc1ccc(C(=O)c2cc([N+](=O)[O-])ccc2N2CCCCC2)cc1,inactive: 7.63%
13,O=C(N/N=C/c1ccncc1)c1ccccc1,inactive: -30.3%
14,CC1CCCN(C(=O)CN2C(=O)NC(C)(c3ccc4ccccc4c3)C2=O)C1 (centres undefined),inactive: 11.1%
15,Cc1ccc(-c2nn(-c3cccc(F)c3)cc2CNCCc2ccncc2)o1,inactive: 0.369%
16,CCNC(=O)NC(=O)COC(=O)C1CSC2(C)CCC(=O)N12 (centres undefined),inactive: -3.77%
17,O=C(COC(=O)c1ccc(Br)cc1)NCc1ccc(F)cc1,inactive: 28.6%
18,Cc1ccc(S(=O)(=O)N(C)C)cc1NC(=S)NCCCn1ccnc1,inactive: 2.72%
19,CC(C)C(=O)OC/C(O)=C(\C#N)c1nc2ccccc2[nH]1,inactive: -3.68%
20,COc1ccc(N2CCN(C(=O)C3CCN(C(=O)c4cccc(Cl)c4)CC3)CC2)cc1,inactive: 5%
21,CN(Cc1ccccc1)C(=O)c1ccccc1C(=O)O,inactive: 10.7%
22,CN1CCN(C(=O)CN(c2ccccc2)S(=O)(=O)N(C)C)CC1,inactive: 7.37%

row,SMILES,growth rescue (activation)
1,COc1ccc(CCNC(=O)C2=COCCO2)cc1,inactive: 26.9%
2,O=C(CCS(=O)(=O)Cc1ccccc1F)NCc1ccccc1Cl,inactive: 1.57%
3,CC(=O)Nc1ccc(NC(=O)COC(=O)c2c3c(nc4ccccc24)CCN(Cc2ccccc2)C3)cc1,inactive: 6.6%
4,CCC(=O)N1CCC(C)(C(=O)Nc2nccc3ccccc23)C1 (centres undefined),inactive: 10.1%
5,O=C(NCc1cc(Cl)cc(Cl)c1)c1csc([C@@H]2C[C@H](O)[C@@H](CO)O2)n1,inactive: 7.67%
6,Cc1ccc(CCN2CC(C(=O)NCCN3CCCCCC3)CC2=O)cc1 (centres undefined),inactive: 12.4%
7,Cn1c(SCc2ccc([N+](=O)[O-])cc2)nnc1-c1cccnc1,inactive: -3.87%
8,O=S(=O)(NC(=NCc1ccccc1)c1ccccc1)c1ccccc1,inactive: 7.67%
9,CC(=O)c1ccc(N(CC(=O)NC2CCS(=O)(=O)C2)S(=O)(=O)c2ccc(C)cc2)cc1 (centres undefined),inactive: 9.4%
10,CS(=O)(=O)c1ccc2sc(NC(=O)c3cc4ccccc4o3)nc2c1,inactive: -0.832%
11,Cn1c(C(=O)O)cnc1Sc1ncc(C(F)(F)F)cc1Cl,inactive: 5.99%
12,CCCC1C(c2ccco2)NC(c2ccco2)CC1(C)O (centres undefined),inactive: 2.96%
13,CCn1c(SCC(=O)Nc2ccc(N3CCOCC3)cc2)nnc1-c1ccco1,inactive: 8.37%
14,Cc1cc(Nc2ccccc2)n(-c2ccc(C(=O)O)cc2)n1,inactive: 22.4%
15,CCC(C)c1ccccc1NC(=O)c1cc(C)no1 (centres undefined),inactive: -1.39%
16,O=C(NCc1ccccc1)N(Cc1cc2cc3c(cc2[nH]c1=O)OCCO3)CC1CCCO1 (centres undefined),inactive: 8.89%
17,O=C(NCCc1ccc2c(c1)OCCO2)c1ccc(F)cc1,inactive: -23.2%
18,NC(=O)c1ccccc1NC(=O)c1ccccc1S(=O)(=O)c1ccccc1[N+](=O)[O-],inactive: 13.6%
19,COc1ccc(Br)cc1C(=O)Nc1ccc(-c2nc3cc(Cl)ccc3o2)cc1,inactive: 14.9%
20,Cn1c(=O)[nH]c(=O)c2c1nc(N1CCN(CCO)CC1)n2Cc1ccccc1,inactive: -16.7%
21,Cn1cccc1CC(=O)NNC(=S)Nc1ccc(F)cc1,inactive: 11.1%
22,Cc1ccc(NC(=O)CN(C)C(=O)C2COc3ccccc3O2)cc1 (centres undefined),inactive: 22.6%

row,SMILES,growth rescue (activation)
1,COCC(=O)OC/C(O)=C(\C#N)c1nc2ccccc2[nH]1,inactive: -10.6%
2,Cc1ccc(C)c(Cn2nnc3c(=O)[nH]c(C4CCN(C(=O)c5ccco5)CC4)nc32)c1,inactive: 17.1%
3,O=C(Cc1cc(=O)oc2cc(O)ccc12)NC(Cc1ccc(Cl)cc1)C(=O)O (centres undefined),inactive: 0.656%
4,COc1ccccc1NS(=O)(=O)c1ccc(O)c(NC(=S)NCC2CCCO2)c1 (centres undefined),inactive: 21.8%
5,CC1CN(C(=S)Nc2ccc(SC(F)F)cc2)CC(C)O1 (centres undefined),inactive: 18%
6,O=C(NCc1ccc(F)cc1)c1c2c(nc3ccccc13)CCN(Cc1ccccc1)C2,inactive: 29.8%
7,CCNc1nc(NCC)n2c(SCC(=O)Nc3ccc(C(F)(F)F)cc3[N+](=O)[O-])nnc2n1,inactive: 19.9%
8,CCOc1ccccc1N1CCN(C(=O)CNC(=O)c2ccccc2F)CC1,inactive: 14.8%
9,Cc1nnc(SC(C)C(=O)NC2CCCCC2)[nH]c1=O (centres undefined),inactive: -0.454%
10,O=S(=O)(c1ccc(C(F)(F)F)cc1)N1CCN(CCc2ccccc2)CC1,inactive: -5.99%
11,O=C(Nc1nc2ccccc2[nH]1)c1ccc(OC(F)F)cc1,inactive: -8.29%
12,CCOC(=O)c1ccc(S(=O)(=O)N2CCN(CC(O)COc3ccc(C#N)cc3)CC2)cc1 (centres undefined),inactive: -23.6%
13,CCC(C(=O)OCC(=O)NC(=O)NC(C)(C)C)c1ccccc1 (centres undefined),inactive: 1.4%
14,CCCN(CCC)CCCNC(=O)Cn1cnc2sc(C)c(S(=O)(=O)N3CCOCC3)c2c1=O,inactive: 10%
15,COCCNC(=O)Cn1cc(C(=S)N2CCCCC2)c2ccccc21,inactive: 24.7%
16,COc1cc(/C=C2\SC(=S)N(NC(=O)c3ccccc3O)C2=O)ccc1O,inactive: -9.24%
17,O=C(NNc1ccccc1)C(=O)N1CCCCC1,inactive: 15.7%
18,Cc1[nH]c2ccccc2c1/C=N/NC(N)=S,inactive: 3.04%
19,CCn1c2ccccc2c2cc(NC(=O)COc3ccccc3)ccc21,inactive: -4.15%
20,O=C(NCCc1cccnc1)C1CCC(=O)N(Cc2cccc(C(F)(F)F)c2)C1 (centres undefined),inactive: 6.49%
21,Cc1cc(C)n2cnnc2n1,inactive: -2.27%
